# Assay results from the supplement of paper PMC8728848.
# This is one part of the list.
# B1: Si Bti9 1b-V5-his (Solanum lycopersicum) (protein)
# chain: MQCNRGCDLALASFYVWRGSNLTLISEMFSTSIADIVSYNNRDNIPNQDSVIAGTRINIPFRCDCLNDGEVLGHAFPYRVKSGDTYDLVARNYSDLTTAQWMMKFNSYPENNIPNTVNLSVVVNCSCGNSDVSKDFGLFVTYPVRAEDNLTSVASAANVSEDIIRRYNPAAVSILDIGQGIIYIPGRDRNGNFPPLPTSTDGLSGGAKKGGRADPAFLYKVVINSKLEGKPIPNPLLGLDSTRTGHHHHHH
# Tests used:
# Test in all cases: glycan array binding signal (z-score within array); higher = stronger binding
# Conditions in all cases: glycan notation: IUPAC condensed, linker removed
# [1] = molecular target: Fuc(a1-2)[GalNAc(a1-3)]Gal(b1-3)GlcNAc(b1-6)GalNAc
# How it was run: (§1)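 The binding signal is a Z-score computed within each array and averaged over linkers. Arrays of the same protein sequence at different concentrations or buffers were also averaged together. Data originate from 3228 arrays in the Consortium for Functional Glycomics database, kept only where the protein sequence was available.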
# [2] = molecular target: Fuc(a1-2)[GalNAc(a1-3)]Gal(b1-4)Glc
# How it was run: as §1
# [3] = molecular target: Fuc(a1-2)[GalNAc(a1-3)]Gal(b1-4)GlcNAc
# How it was run: as §1
# [4] = molecular target: Fuc(a1-2)[GalNAc(a1-3)]Gal(b1-4)GlcNAc(b1-2)Man
# How it was run: as §1
# [5] = molecular target: Fuc(a1-2)[GalNAc(a1-3)]Gal(b1-4)GlcNAc(b1-2)Man(a1-3)[Fuc(a1-2)[GalNAc(a1-3)]Gal(b1-4)GlcNAc(b1-2)Man(a1-6)]Man(b1-4)GlcNAc(b1-4)GlcNAc
# How it was run: as §1
# [6] = molecular target: Fuc(a1-2)[GalNAc(a1-3)]Gal(b1-4)GlcNAc(b1-2)Man(a1-3)[Fuc(a1-2)[GalNAc(a1-3)]Gal(b1-4)GlcNAc(b1-2)Man(a1-6)]Man(b1-4)GlcNAc(b1-4)[Fuc(a1-6)]GlcNAc
# How it was run: as §1
# [7] = molecular target: Fuc(a1-2)[GalNAc(a1-3)]Gal(b1-4)GlcNAc(b1-3)Gal(b1-4)GlcNAc
# How it was run: as §1
# [8] = molecular target: Fuc(a1-2)[GalNAc(a1-3)]Gal(b1-4)GlcNAc(b1-3)Gal(b1-4)GlcNAc(b1-3)Gal(b1-4)GlcNAc
# How it was run: as §1
# [9] = molecular target: Fuc(a1-2)[GalNAc(a1-3)]Gal(b1-4)GlcNAc(b1-3)GalNAc
# How it was run: as §1
# [10] = molecular target: Fuc(a1-2)[GalNAc(a1-3)]Gal(b1-4)GlcNAc(b1-3)[Fuc(a1-2)[GalNAc(a1-3)]Gal(b1-4)GlcNAc(b1-6)]GalNAc
# How it was run: as §1
# [11] = molecular target: Fuc(a1-2)[GalNAc(a1-3)]Gal(b1-4)GlcNAc(b1-6)GalNAc
# How it was run: as §1
# [12] = molecular target: Fuc(a1-2)[GalNAc(a1-3)]Gal(b1-4)[Fuc(a1-3)]GlcNAc
# How it was run: as §1
# [13] = molecular target: Fuc(a1-2)[GalNAc(a1-3)]Gal(b1-4)[Fuc(a1-3)]GlcNAc(b1-3)GalNAc
# How it was run: as §1
# [14] = molecular target: Fuc(a1-2)[GalNAc(a1-4)]Gal(b1-4)GlcNAc
# How it was run: as §1
# [15] = molecular target: Fuc(a1-2)[GalNAc(b1-3)]Gal
# How it was run: as §1
# [16] = molecular target: Fuc(a1-3)GlcNAc
# How it was run: as §1
# [17] = molecular target: Fuc(a1-3)[Gal(b1-4)]Glc6S
# How it was run: as §1
# [18] = molecular target: Fuc(a1-3)[Gal(b1-4)]GlcNAc
# How it was run: as §1
# [19] = molecular target: Fuc(a1-3)[Gal(b1-4)]GlcNAc(b1-2)Man
# How it was run: as §1
# [20] = molecular target: Fuc(a1-3)[Gal(b1-4)]GlcNAc(b1-2)Man(a1-3)[Fuc(a1-3)[Gal(b1-4)]GlcNAc(b1-2)Man(a1-6)]Man(b1-4)GlcNAc(b1-4)GlcNAc
# How it was run: as §1
# [21] = molecular target: Fuc(a1-3)[Gal(b1-4)]GlcNAc(b1-2)Man(a1-3)[Fuc(a1-3)[Gal(b1-4)]GlcNAc(b1-2)Man(a1-6)]Man(b1-4)GlcNAc(b1-4)[Fuc(a1-6)]GlcNAc
# How it was run: as §1
# [22] = molecular target: Fuc(a1-3)[Gal(b1-4)]GlcNAc(b1-3)Gal(b1-3)[Fuc(a1-4)]GlcNAc
# How it was run: as §1
# [23] = molecular target: Fuc(a1-3)[Gal(b1-4)]GlcNAc(b1-3)Gal(b1-4)[Fuc(a1-3)]GlcNAc
# How it was run: as §1
# [24] = molecular target: Fuc(a1-3)[Gal(b1-4)]GlcNAc(b1-3)Gal(b1-4)[Fuc(a1-3)]GlcNAc(b1-3)Gal(b1-4)[Fuc(a1-3)]GlcNAc
# How it was run: as §1
# [25] = molecular target: Fuc(a1-3)[Gal(b1-4)]GlcNAc(b1-3)GalNAc
# How it was run: as §1
# [26] = molecular target: Fuc(a1-3)[Gal(b1-4)]GlcNAc(b1-6)GalNAc
# How it was run: as §1
# [27] = molecular target: Fuc(a1-3)[Gal(b1-4)]GlcNAc(b1-6)[Gal(b1-3)GlcNAc(b1-3)]Gal(b1-4)Glc
# How it was run: as §1
# [28] = molecular target: Fuc(a1-3)[Gal(b1-4)]GlcNAc6S
# How it was run: as §1
# [29] = molecular target: Fuc(a1-3)[Gal3S(b1-4)]Glc
# How it was run: as §1
# [30] = molecular target: Fuc(a1-3)[Gal3S(b1-4)]GlcNAc
# How it was run: as §1
# [31] = molecular target: Fuc(a1-3)[Gal3S(b1-4)]GlcNAc6S
# How it was run: as §1
# [32] = molecular target: Fuc(a1-3)[GalNAc(b1-4)]GlcNAc
# How it was run: as §1
# [33] = molecular target: Fuc(a1-3)[GalNAc(b1-4)]GlcNAc6S
# How it was run: as §1
# [34] = molecular target: Fuc(a1-4)GlcNAc
# How it was run: as §1
# [35] = molecular target: Fuc(b1-3)GlcNAc
# How it was run: as §1
# [36] = molecular target: Gal(a1-2)Gal
# How it was run: as §1
# [37] = molecular target: Gal(a1-3)Gal
# How it was run: as §1
binder,measurement,setting,value
B1,glycan array binding signal (z-score),[1],-0.213
same,glycan array binding signal (z-score),[2],-0.239
same,glycan array binding signal (z-score),[3],-0.218
same,glycan array binding signal (z-score),[4],0.027
same,glycan array binding signal (z-score),[5],-0.252
same,glycan array binding signal (z-score),[6],0.032
same,glycan array binding signal (z-score),[7],-0.255
same,glycan array binding signal (z-score),[8],0.217
same,glycan array binding signal (z-score),[9],-0.145
same,glycan array binding signal (z-score),[10],-0.271
same,glycan array binding signal (z-score),[11],-0.333
same,glycan array binding signal (z-score),[12],-0.245
same,glycan array binding signal (z-score),[13],0.126
same,glycan array binding signal (z-score),[14],-0.185
same,glycan array binding signal (z-score),[15],-0.345
same,glycan array binding signal (z-score),[16],-0.37
same,glycan array binding signal (z-score),[17],-0.288
same,glycan array binding signal (z-score),[18],-0.217
same,glycan array binding signal (z-score),[19],-0.338
same,glycan array binding signal (z-score),[20],0.018
same,glycan array binding signal (z-score),[21],-0.23
same,glycan array binding signal (z-score),[22],-0.136
same,glycan array binding signal (z-score),[23],0.039
same,glycan array binding signal (z-score),[24],-0.313
same,glycan array binding signal (z-score),[25],-0.187
same,glycan array binding signal (z-score),[26],-0.03
same,glycan array binding signal (z-score),[27],-0.389
same,glycan array binding signal (z-score),[28],-0.273
same,glycan array binding signal (z-score),[29],-0.261
same,glycan array binding signal (z-score),[30],-0.308
same,glycan array binding signal (z-score),[31],-0.214
same,glycan array binding signal (z-score),[32],-0.214
same,glycan array binding signal (z-score),[33],-0.131
same,glycan array binding signal (z-score),[34],-0.202
same,glycan array binding signal (z-score),[35],-0.203
same,glycan array binding signal (z-score),[36],0.074
same,glycan array binding signal (z-score),[37],-0.128
